Source: article PMC12136788
The list shows a part of the results.

B1: chr2:187370260:187370261:+_ENSG00000065548_ENST00000337859|hu_hu|FALSE|FALSE (ssRNA)
RNA: GGGAGUUCUACAGUCCGACGAUCUGCUUUCCCUGCUUUGAAGUCAGCUUUCCUUCUUUCCAUAUCUUGUUCAAGUUUAUCAAUCUUUUCUUGUCUUUUCCUUUUCUUCCAGGCAAGAAAAGAUUCUAGAGUGAUUUUGGUAACCAACAGAGGAUUGAGCAUCA
B2: 127049554_127049674_269_CDS_ENSMUSG00000031979_ENSMUST00000034460|mouse|control|control (ssRNA)
RNA: GGGAGUUCUACAGUCCGACGAUCGACAAAGUCGGCGUAGUCCUUGUUGAUGAGCUCCACCAUGGCCGUCUUCAGCAGCUUGUAAUACAGCUCCAGGUCGUCUCUCAGCUCCUCCAGCUGCACCCGCUUCCUGCAGUCAGACACCAACAGAGGAUUGAGCAUCA
B3: 76621201_76621321_621_3pUTR_ENSG00000089916_ENST00000261530|human|control|control (ssRNA)
RNA: GGGAGUUCUACAGUCCGACGAUCACACUCCAUCCUUUCUUUCCUUCCUGUUUUGCUUAGGAAAGUCCUAUUUUCUGCUGAUUCACACAAUCCGUGGCCUGAUGAGGUCCAGGGAGUAUUCUCCUUCCAGCGGGACAGACGCUGCAACAGAGGAUUGAGCAUCA
B4: 32243022_32243862_1492_3pUTR_ENSMUSG00000024384_ENSMUST00000025243|mouse|control|control (ssRNA)
RNA: GGGAGUUCUACAGUCCGACGAUCGAUUCUCCAAAUAUAUCUGCAAUAAGAUUUUCUUCUUCAUUGCCGGACUCACUGUCACUCCCAAACAGGUCCUUGUCUUCCUUCUUCUUCACAGAAGACUCUUCUUUCCCGGCUUCUUCUCAACAGAGGAUUGAGCAUCA
B5: 5118651_5119987_515_CDS_ENSMUSG00000050697_ENSMUST00000051186|mouse|control|control (ssRNA)
RNA: GGGAGUUCUACAGUCCGACGAUCAUUGGGUGAGCCACAGCUUGUUCUUAAAAAUUCACCAUCUGACAUCAUGUUUGAAAGACCAAAGUCGGCUAUCUUUGCAUUCAUGUGUGCAUCAAGCAGGACGUUCUCAGGUUUCAAAUCCAACAGAGGAUUGAGCAUCA
B6: 135486841_135487110_807_ncRNA_ENSMUSG00000040532_ENSMUST00000154469|mouse|control|control (ssRNA)
RNA: GGGAGUUCUACAGUCCGACGAUCCUACAACAACCAAUCGUUCCACAACAUCUGGCCUCUGCAGUGCCAGGAGCAUGGCUGUCUUUCCUCCCAUGCUGUGGCCAACGAGGACGCAGGGCACCAGACCCAGCUGUGGAAGGAGGCCAACAGAGGAUUGAGCAUCA

Biological target: T1, UNK ZnF1-3 (human, UniProt Q9C0B0 31-174)
T1 sequence: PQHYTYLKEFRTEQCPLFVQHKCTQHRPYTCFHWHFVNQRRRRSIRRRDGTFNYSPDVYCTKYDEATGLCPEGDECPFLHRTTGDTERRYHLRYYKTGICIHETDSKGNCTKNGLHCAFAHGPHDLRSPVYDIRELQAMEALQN
Assay: nsRBNS (natural sequence RNA bind-n-seq); RBNS binding buffer (assumed for nsRBNS): 25 mM Tris pH 7.5, 150 mM KCl, 3 mM MgCl2, 0.01% Triton X-100, 500 ug/ml BSA, 20 U/ml SUPERase-In, 4 C; UNK is unkempt and MSI1 is Musashi-1; names of the RNAs are library labels; protein concentration not given here; high values mean tight binding

Question: B1 was tested. Which binding signal did it give?
Answer: 0.408 enrichment R

Question: With B2 as the binder, how does the binding signal read?
Answer: 1.36 enrichment R

Question: How did the binding signal turn out when B3 was run?
Answer: 0.79 enrichment R

Question: B4 was tested. Which binding signal did it give?
Answer: 0.569 enrichment R

Question: B5 was tested. Which binding signal did it give?
Answer: 1.13 enrichment R

Question: Which binding signal does the source give for B6 here?
Answer: 0.609 enrichment R
